# Data published in the supplement of paper PMC10126150.
# Values marked as one replicate rest on one cluster of the flow cell; about a third of the high ones do not repeat.
# System: ATP
# Experiment: switch fluorescence ratio, 500 uM ATP over buffer (Cy3 cluster intensity, sum of 5 cycles each) (fold (ratio)); higher = stronger signal-on switching upon ATP binding; sequences stand for … in TCGTCGGCAGCGTCAGATGTGTATAAGAGACAGTTTTTTTTTTTTTTTTTTTTTTTTT…TC
# Conditions: aptamer strand: ATP DNA aptamer (quencher-CACCTGGGGGAGTATTGCGGAGGAAGG + anchor), 100 nM annealed; ATP concentration: 500 uM; one replicate
# In short: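 After annealing to 100 nM quencher-labelled ATP aptamer, Cy3-labelled switching-strand clusters on a modified Illumina MiSeq flow-cell were imaged in selection buffer. A second image followed after 15 min with 500 uM ATP at 22 °C, and five such buffer/ATP cycles were done, each separated by NaOH stripping and re-annealing. The fluorescence ratio, averaged per switch-domain sequence, is summed target-cycle over summed buffer-cycle Cy3 intensity per cluster, with clusters outside 100-1000 RFU excluded.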
# 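Further: ATP exposure 15 min at 22 °C before imaging.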
row,Sequence,switch fluorescence ratio
1,GTGAGAGTAA,1
2,AAGGGATTCA,0.929
3,CGATTGACAC,1.1
4,ACTCATTTGC,1.04
5,CGATTGGCTG,0.935
6,TTAGAGTTAG,1
7,ACTTCGGCGC,1.13
8,TTGCGTAAA,0.96
9,CAGTGATGCC,0.983
10,ACAACTGTCG,1.1
11,GATCCTAAAT,1.02
12,CCGTTCTCAC,1.4
13,TAGCTCAATA,1.04
14,GGTAGTCGTT,0.98
15,GGATAATGGG,0.976
16,GAATAATCCC,1.1
17,TCGTATCTGG,0.955
18,TCCAGTGTTT,1.02
19,GGAAGGAGTT,0.989
20,TTGAACTCTG,0.972
21,GACGTTATCA,1.02
22,GCGATTGACT,1.07
23,AAAATTGGAC,0.994
24,AGCTTCGGTG,1.03
25,CGAGCCGCTA,1.09
26,TCGCAGATGT,1.03

row,Sequence,switch fluorescence ratio
1,GGTTCACGTG,1
2,CATTATAAAT,0.973
3,CTTAGCTACG,1.02
4,GACTACGCCA,3.41
5,ATCTGCATAG,1.52
6,CGGTGTAGCG,1.01
7,TCGGACATCG,1.03
8,TACACCCATT,1.03
9,TAAGGCAGAT,1
10,GCTTTTCGTC,0.974
11,ACCTCGAGGT,0.965
12,GGTACGCGGA,1.11
13,TTCGATGACG,1.04
14,CAGGAAGGA,1.02
15,GTTTTTGAT,0.971
16,TCAGCCAGGC,1
17,ACGGATTTTT,1.01
18,CGGCAACGAG,1
19,GCACGAACGC,1.62
20,AAATGGGCA,1.03
21,ATTGGTGGTC,1.02
22,TGGACGCGCG,1.01
23,AGAGATGGAA,1.12
24,GGTTTTTGC,0.998
25,CGGGAGGAA,1.02
26,GGAGGATGTC,1.07

row,Sequence,switch fluorescence ratio
1,TGCCAAGTG,0.983
2,TTTTGACGGT,1.01
3,GCGCTGTCCC,1.13
4,GTCACTGTAC,1.77
5,TTATGGTGGC,0.966
6,GTTGATTTGA,0.989
7,ACTTAGGGG,1.05
8,TTTTAGTCCT,1.01
9,GAAAACGAGC,0.979
10,TCATGTAGGT,0.984
11,CATCACATAT,1.09
12,ATATAAATG,1.03
13,AAGCTTAGGT,1.02
14,GATTATGAGA,1.03
15,AGAAATTT,0.98
16,AGTGTTAGGT,1
17,AAAGGTCAAT,0.976
18,TATCTAAGGG,0.985
19,GCTACTGGGT,0.94
20,GTTGGCTACC,1.02
21,AAACGCCATA,1.07
22,TGATGTCCCA,1.01
23,TATAATCAAC,1.04
24,TTAGGGAGC,1.02
25,ACCGAGGTTT,0.98
26,CGGTATTATT,0.992

row,Sequence,switch fluorescence ratio
1,GTATATTGTA,1.06
2,GGTAGGGGCA,1
3,CTCCATACGC,2.11
4,ATCGACTTCG,1
5,AGGTTGTTAC,1.15
6,TAACGTGAAG,0.996
7,TGTACTTTAT,1.02
8,TGCGCAGAAT,0.968
9,AAATACTCTA,1.17
10,CTTGTTTGAG,0.985
11,GATGGTGCGT,1.03
12,AGGGGATGAG,0.991
13,CACAGGTATC,1.05
14,GGTATTAGAG,0.971
15,TGCCTAGTAA,0.998
16,AGGCGTCCGG,0.961
17,CACCGAAGGA,1.02
18,ACATCTTTCA,1.05
19,AGTGTCTCG,1.05
20,GAACGCTTTT,1.87
21,CCTGCAGCGG,1.76
22,GAGACATTTG,0.918
23,AAATTAGGGC,0.955
24,AGGACTTAAG,1.12
25,AAACTATTT,0.984
26,GTTAGTTGAC,1.04

row,Sequence,switch fluorescence ratio
1,TTACTTAGT,1.04
2,AGATCCTGA,1.12
3,TGTTACTTGC,1.02
4,ATTGGTAGAA,1.01
5,CTACTTATGT,1.01
6,TGCCAGCAGT,1.09
7,ACGGTATTCT,1.16
8,TCTGACCGAA,1.12
9,ATGCGTAACC,0.995
10,TGACCCGAAT,1.02
11,AGACATCACG,1.22
12,GGTCTACAAA,1.03
13,CTACTAGGGT,1
14,GCTTCTATA,0.99
15,CCCCGTACGG,1.01
16,GCTACATTAG,1.01
17,TTCCATAAAC,0.966
18,AAAATGGAC,1.01
19,CGGTTTTGA,1.02
20,AAGGTTATCG,1.05
21,TAGAAGAGTA,0.983
22,GGCTGTAGCT,1.01
23,ATACGGCTAT,1.07
24,AATTCAGCTA,1.04
25,TCATGGTGGC,0.982
26,TCGACTACGC,1.16

row,Sequence,switch fluorescence ratio
1,ATCCCTGGCG,1.01
2,ACCGCTGGGT,1.05
3,GGGTTAAAGC,0.959
4,AATGCTCGCG,1.01
5,GGTGGGACTC,1.03
6,TAAGCTAAAC,1.26
7,ACTCGCTTGC,1.86
8,GGCTGTAACG,1.06
9,TTGATTGGTT,1.05
10,TAGTCGGGCT,0.938
11,GCGGTAATAG,1.32
12,TAGGATATAC,1.16
13,AGTTACAGAT,1.05
14,TATCAAGGCG,0.982
15,GATTTCGGGG,0.959
16,CAGAACGGGT,1
17,TATCCTGACT,1.29
18,AAAACGCCCC,1.23
19,TAGACTCTGC,1.12
20,AACGGCGATC,1.25
21,TACGGGGTAC,1.33
22,AGGTAGAAAT,1.05
23,GAGTACCGTG,1.06
24,CGGGTCACAA,1.01
25,TTGTGATGTT,1.03
26,TACATATAG,1.04

row,Sequence,switch fluorescence ratio
1,AGGCCGGTAG,0.961
2,AGCCGAGGTA,1.02
3,CCCTGACACG,1.01
4,CCGGACAGAT,1.12
5,ATCGCTGCAA,3.05
6,GTAGCTTGGG,1.03
7,TTCGGATTAG,0.986
8,TGTGGTTCAC,1.01
9,GTCCCAATTC,3.28
10,AAAGGTTG,0.985
11,TACCAGCAGA,1.05
12,TACGAAAGCA,1.06
13,TGGGGAGCCA,0.982
14,ATTCTACTAG,1.01
15,TGTGCAGAGA,1.03
16,TGGGTGAGTC,0.974
17,TCGCAGTCAG,1.19
18,TCTGTTCGCT,1.02
19,GGGGGACAAG,1.02
20,TTCCAGGTTT,1.67
21,CTCAGTTGTT,1
22,TAATCCTTGT,0.984
23,GAGGGGGA,0.975
24,GTGCACGGGG,1.02
25,CGGATTTGGT,1.02
26,TTATCGCAAC,1.02

row,Sequence,switch fluorescence ratio
1,CTAAGCGACG,1.06
2,TATAGGGAGA,1.02
3,GAGAATGGGA,0.985
4,TGACATACTC,1.48
5,CCTGGCCGGG,0.966
6,CCGGCTATTG,1.02
7,ACGGACGGTG,1.12
8,ACTTACTAGG,1.18
9,CGAAAATGGA,0.965
10,GTTCGCCGAT,1.03
11,GGGCTGAGAT,1.02
12,GTCGACGTAA,1.06
13,GTATCATTTA,0.955
14,TCACATGGTG,1.29
15,TCTGAAAGGG,1
16,CCTCCTGTTT,1.92
17,TTTCCAGGTA,1.09
18,GGCCAGTTCC,1.01
19,TACGACGAA,1.22
